For series [1], the system named is rat hippocampal slice cultures (RHSC). As to the kind of experiment: Oxygen-glucose deprivation (OGD) in rat hippocampal slice cultures, propidium iodide uptake. It is filed as cell-based.
For series [2] the test system is unchanged. How it is done: All experimental animal procedures were approved by the University Institutional Animal Care and Use Committee. Neonatal rats (Sprague-Dawley) at postnatal Day 7 (P7) were decapitated and the hippocampi dissected out under sterile conditions. 400 μm transverse hippocampal slices were prepared with a Mcllwain tissue chopper and cultured on Millicell permeable membranes (0.4 μM pore size) in six well plates for 6 days at 37° C. in 5% CO2. […]
For oxygen-glucose deprivation (OGD) experiments, a glucose free balanced salt solution (BSS) (120 mM NaCl, 5 mM KCl, 1.25 mM NaH2PO4, 2 mM MgSO4, 2 mM CaCl2, 25 mM NaHCO3, 20 mM HEPES, 25 mM sucrose; pH 7.3) was bubbled for 1 hr with 5% CO2 95% N2 at 10 L/hr. […] Neuronal damage was determined by staining slices with propidium iodide (PI; Molecular Probes, Eugene, Oreg.) and quantifying the relative fluorescence intensity (excitation 540/emission 630). […] Images were taken of the hippocampal slices prior to OGD to establish baseline fluorescence. After OGD slices were placed in normal media containing 2 μM PI and imaged again at 48 hours post-OGD using fluorescence optics with an Olympus IMT-2 microscope and a Hamamatsu camera. The total fluorescent intensity in each slice was determined using Image Pro Plus software and all values were expressed as percent change from untreated OGD. […]

Read-outs that look alike come from different tables or passages of the source.

For the compound `NCCc1c[nH]c2ccc(O)cc12` [serotonin], the “neuroprotective response (PI uptake) 24 hrs post-OGD” value (from here on “neuroprotective response”) in series [1] (10 nM-100 μM, immediately after OGD) is “moderate neuroprotective response”. Besides, the “neuronal loss (PI uptake) vs untreated OGD control” value in series [1] (1 mM, immediately after OGD) was “increased neuronal loss”.

As for `CCN1CCC[C@H]1CNC(=O)c1c(O)c(Cl)cc(Cl)c1OC` [raclopride], in series [1] (antagonist plus 100 μM MAP immediately after 60 min OGD, 24 hrs post-OGD), the “effect of antagonist on neuroprotective effect of MAP (PI uptake)” value is given as “significantly decreased the neuroprotective effect of MAP”. In the series on AKT, the “effect on MAP induced AKT phosphorylation” value is “significantly decreased the MAP induced phosphorylation of AKT”. The “effect on anti-apoptotic effect of MAP (TUNEL)” value in series [2] was “measurably decreased”.

Take `NC[C@H](O)c1ccc(O)c(O)c1` [norepinephrine]: the “neuroprotective response” value in series [1] (10 nM-100 nM, immediately after OGD) is “moderate neuroprotective response”.

`O=c1cc(N2CCOCC2)oc2c(-c3ccccc3)cccc12` [LY29002]: the “effect on anti-apoptotic effect of MAP (TUNEL)” value in series [2] (added after OGD prior to MAP treatment, 24 hrs post-OGD) was “disrupts the anti-apoptotic effect of MAP”.

In the case of `NCCc1ccc(O)c(O)c1` [dopamine], the “PI uptake vs untreated non-OGD control” value in series [1] (10 nM after OGD) was “significantly different from the untreated non-OGD control”; in series [1] (100 nM-1 mM after OGD), “did not differ from the untreated, non-OGD control”. The “neuroprotective response” value in series [1] (all concentrations tested, 10 nM-1 mM, after 60 min OGD, listed as Dopamine) is “significant neuroprotective effect”. In addition, the “toxicity in RHSC dose response” value in series [1] (up to 1 mM after OGD) is “failed to induce toxicity”.

On to `CN[C@@H](C)Cc1ccccc1` [methamphetamine], for which, in series [1] (100 μM MAP added 24 hr after OGD), the “PI uptake (neuronal death) vs untreated non-OGD control” value is “significant increase in neuronal death”.

These data come from US20150290148A1 (priority 2006, published 2015).
